# Results reported in paper PMC5836133.
# The other results are listed elsewhere or left out. At the low end of the ranking the order means little.
# Tested on: T1, GST-NbGlk1(82-244)
# T1 sequence: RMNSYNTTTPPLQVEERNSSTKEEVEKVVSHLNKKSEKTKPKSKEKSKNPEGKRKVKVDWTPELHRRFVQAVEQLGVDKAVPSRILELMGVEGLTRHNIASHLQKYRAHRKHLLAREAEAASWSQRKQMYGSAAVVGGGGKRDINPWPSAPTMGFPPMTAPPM
# Assay: protein-binding microarray;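 further: rank-based score ranging −0.5 to +0.5 with E above 0.45 taken as significant binding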
# Details: NbGlk1 is a Golden2-like transcription factor of Nicotiana benthamiana; high values mean tight binding; most listed sequences are background and not binding sites; double strand, one strand shown
row,Sequence,binding signal [E-score]
1,ACAAAGGC,-0.309
2,ACCTGTCG,-0.124
3,ACCAAGCG,-0.245
4,AGGGGGGC,-0.266
5,ATTGTATG,0.15
6,AATCCTTG,0.336
7,ATCGACCC,-0.0445
8,CAGAGCCG,-0.271
9,AGAGGTGA,-0.113
10,ATGATTGA,-0.0576
11,ATTAGGCC,-0.0856
12,AAGATCCC,0.333
13,AAAACGCA,0.0376
14,AGCGGGAG,-0.173
15,CAACTGTC,-0.166
16,CAAATATC,0.375
17,ACGACGGA,0.013
18,AACATGAA,0.0283
19,ACGGCCTC,-0.146
20,CAAAGCCA,-0.195
21,AGTGGGCA,-0.0248
22,AATAATGT,0.179
23,ACTATAAC,-0.0973
24,ATAACTTG,0.105
25,AAATCCAT,0.422

row,Sequence,binding signal [E-score]
1,AAGAATAT,0.331
2,AGAATACG,0.16
3,ATCTTACG,0.274
4,ATTTCGCA,0.279
5,CAAAAAAG,0.0516
6,ACACGGGC,-0.15
7,ATGACTCG,-0.0232
8,ATCTCCTC,0.296
9,ATATTCGG,0.228
10,ATTCTCCA,0.31
11,AACTGTCC,-0.133
12,AGAGCCTA,-0.116
13,ACAACACT,-0.0589
14,ACATGGAC,-0.114
15,ATTCATTG,0.0123
16,CACTCCTG,-0.13
17,AGAGTGTC,-0.135
18,AACCCGGG,-0.126
19,ACGAGGCG,-0.183
20,ACGCGCGA,0.112
21,CACGTAAC,0.00439
22,AGAGTTTC,-0.13
23,ACGTCCCG,-0.257
24,CACATGTA,-0.000115
25,AAGAGACC,-0.223

row,Sequence,binding signal [E-score]
1,ATTTGCAA,0.304
2,AGCCTTTA,-0.147
3,ATGGGGAG,-0.0436
4,AACCGGGA,-0.228
5,ATTTATCA,0.155
6,CAAACTCG,-0.0723
7,AGAGGCTG,-0.255
8,ACCATGCG,-0.132
9,ACTCCCTC,-0.224
10,AACTGTAA,0.0394
11,AAAGTTAC,-0.101
12,ACGATGAA,-0.0966
13,CAATCGTC,0.124
14,AAGTTTAC,-0.193
15,ACGAATTC,0.114
16,AGATTCCG,0.463
17,ACGATGAT,0.129
18,AGGCAAGA,0.0702
19,ATCAAGAT,0.294
20,ACGTTCAT,-0.147
21,ACTTATGA,0.169
22,AATTTAGA,0.251
23,ATTAATCG,0.0912
24,ACGTATAG,0.0747
25,ATGTCACA,0.15

row,Sequence,binding signal [E-score]
1,AAAGGCAT,-0.277
2,AGACAAAT,0.145
3,CAAGCAGC,-0.168
4,ACTTGGGG,-0.0916
5,ACATTCCC,0.0444
6,AAGCCTGG,-0.216
7,ATGAAAAA,0.0906
8,AAACAGCT,0.0135
9,ACATTGTC,-0.0399
10,ACGCGAGG,-0.0886
11,ACACAGTG,-0.114
12,AACCGCTG,-0.201
13,ACCATCAT,0.0644
14,CACGCAAG,-0.0861
15,ACCGAGGA,-0.177
16,CACTCCTA,-0.21
17,ATCAGTTG,0.0718
18,ACACATAC,0.0816
19,CAAATAAG,0.053
20,AACGGATA,0.215
21,ACGGAACA,-0.0487
22,ATAGATCG,0.206
23,ACGTGTAC,-0.162
24,AAATTCGG,0.227
25,ATCTATAA,0.224

row,Sequence,binding signal [E-score]
1,AACGCCCG,-0.183
2,AGGACAGA,-0.0906
3,AGGCCCTC,-0.299
4,AGCCATCG,-0.207
5,AAGATATA,0.31
6,CAGATTCG,0.438
7,ACACATCG,0.0893
8,CACGCTTA,-0.0854
9,AGGGGTAT,-0.0239
10,AACGGGCG,-0.0601
11,CAAGCAAC,-0.245
12,AAGATTAA,0.117
13,AGGAGAGG,-0.276
14,ACCTATAC,-0.046
15,AAAAAGGC,-0.0876
16,AGATTGAA,0.0399
17,CAATGCAC,-0.0881
18,AAGTCTGT,-0.0934
19,AACGATAG,-0.0843
20,AGAGATAG,0.106
21,AGGTGAAG,-0.138
22,ACGGACCC,-0.0331
23,AGCTCGGA,0.0916
24,AGGGTGTA,0.0464
25,AACCGTGC,-0.113

row,Sequence,binding signal [E-score]
1,AGGTTTTA,-0.0542
2,AGCCGGTA,-0.282
3,ATTTCGCG,0.305
4,ACGACCCT,-0.182
5,AGTTAACG,-0.0894
6,ACCTTCGG,-0.216
7,ACTTGAGG,0.0371
8,AGTATAAG,0.0124
9,AATTACTC,0.152
10,AAGCCTGC,-0.231
11,ATCGTCTA,0.208
12,AGTGCGGG,-0.155
13,AACCTGTA,-0.081
14,AAGCCCTA,-0.232
15,AGAAGACC,-0.255
16,AACGCACA,0.00654
17,AAACCTGT,-0.127
18,ATACTTAG,-0.0266
19,ACTTCCCC,-0.206
20,AGTCCTCG,-0.3
21,AGGGTGTG,-0.224
22,ATCTATCC,0.191
23,ATTCCGTA,0.308
24,AATGTGTG,0.0225
25,AAATTACC,0.252

row,Sequence,binding signal [E-score]
1,CAACGGGA,0.0414
2,AGAGGTCG,-0.203
3,AAGCATTC,-0.217
4,AAGAATGG,0.04
5,ATGGTTCA,-0.0612
6,ATACGTGA,0.166
7,AGACACGA,-0.00555
8,ATAAATTG,0.163
9,ACGTCACT,-0.128
10,AAATATAG,0.237
11,AGTAGTAC,-0.0215
12,ACGTCTAG,-0.127
13,ACAAACAG,0.0895
14,AATACGAG,0.133
15,AGTATGCC,-0.135
16,AAGGATGC,-0.0518
17,ACGTTTTA,0.0214
18,ACACGGTA,-0.0538
19,ACATACGC,-0.0828
20,ACTCGCGG,-0.147
21,AGGAGCGA,-0.141
22,ATAGAGAC,0.048
